Reference: the supplement of paper PMC10126150
Values marked as one replicate rest on one cluster of the flow cell; about a third of the high ones do not repeat.

Tested on: ATP
Experiment: switch fluorescence ratio, 500 uM ATP over buffer (Cy3 cluster intensity, sum of 5 cycles each) (fold (ratio)); higher = stronger signal-on switching upon ATP binding; sequences stand for … in TCGTCGGCAGCGTCAGATGTGTATAAGAGACAGTTTTTTTTTTTTTTTTTTTTTTTTT…TC
Details: aptamer strand: ATP DNA aptamer (quencher-CACCTGGGGGAGTATTGCGGAGGAAGG + anchor), 100 nM annealed; ATP concentration: 500 uM; one replicate
How it was run: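 The quencher-labelled ATP aptamer, at 100 nM, was annealed to Cy3-labelled switching-strand clusters on a modified Illumina MiSeq flow-cell. The clusters were imaged in selection buffer, then after 15 min with 500 uM ATP at 22 °C, and this buffer/ATP cycle ran five times with NaOH stripping and re-annealing between runs. Per-cluster fluorescence ratios, summed target-cycle over summed buffer-cycle Cy3 intensity, were averaged per switch-domain sequence. Clusters outside 100-1000 RFU were excluded.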
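Note: ATP exposure 15 min at 22 °C before imaging.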

For CCGAAAGGT, the switch fluorescence ratio was 1.05.

ACGGGGCGCG gave a switch fluorescence ratio of 0.964.

AAGGCTACTA was tested, and the switch fluorescence ratio was 0.998.

In the case of ATTCTCAATT, the switch fluorescence ratio was 1.01.

In the case of TTTGTTCATG, the switch fluorescence ratio was 0.983.

With TTCGATCGCT the switch fluorescence ratio was 1.02.

ACCACGTTCG showed a switch fluorescence ratio of 1.05.

For TTACGGTTGA, the switch fluorescence ratio was 1.03.

With GTTGTGAGGC the switch fluorescence ratio was 1.02.

With GGACATACGG the switch fluorescence ratio was 1.06.

Sequence ATCAACAGTG has a switch fluorescence ratio of 1.01.

For TTTCCATACC, the switch fluorescence ratio was 1.05.

CCGATCTACG showed a switch fluorescence ratio of 1.5.

In the case of TCTGGAAAAT, the switch fluorescence ratio was 1.03.

In the case of TAGGAACGGG, the switch fluorescence ratio was 0.992.

CTCTAGGGTT gave a switch fluorescence ratio of 0.999.

GCTTTAGGGG was tested, and the switch fluorescence ratio was 1.02.

Sequence ATAGAGGTTG has a switch fluorescence ratio of 1.

In the case of AGGGAAGCCG, the switch fluorescence ratio was 1.16.

AGCCCACAAA was tested, and the switch fluorescence ratio was 1.03.

TTATCAGGCT showed a switch fluorescence ratio of 0.994.

TATAGAAATG was tested, and the switch fluorescence ratio was 1.08.

Work on TTGCTATTGT yielded a switch fluorescence ratio of 1.01.

For GTAGACAACA, the switch fluorescence ratio was 1.04.

TCCTTATAAA was tested, and the switch fluorescence ratio was 0.996.

Sequence GCTTTAAGGC has a switch fluorescence ratio of 1.03.

For CAAATGCTGT, the switch fluorescence ratio was 1.01.

Work on TTCGATCGGG yielded a switch fluorescence ratio of 1.01.

TGAGTGGTAG was tested, and the switch fluorescence ratio was 0.995.

CTATTCGGTA showed a switch fluorescence ratio of 1.04.

Sequence GACAGTCTCC has a switch fluorescence ratio of 1.04.

CTCATCCTCG gave a switch fluorescence ratio of 1.08.

Work on TAAACCCGCT yielded a switch fluorescence ratio of 1.03.

In the case of CGCCAACTAG, the switch fluorescence ratio was 1.17.

GCAGCGGG was tested, and the switch fluorescence ratio was 1.01.

Sequence CGGTAGGGAA has a switch fluorescence ratio of 1.07.

For TAATCTCGGA, the switch fluorescence ratio was 0.979.

Sequence GCCTCTCTTA has a switch fluorescence ratio of 1.03.

Work on AAATGTTCGA yielded a switch fluorescence ratio of 0.998.

Sequence TCAATCTTAA has a switch fluorescence ratio of 1.07.

TATTTTCA was tested, and the switch fluorescence ratio was 0.985.

Sequence GGGGGGCCA has a switch fluorescence ratio of 1.01.

CTACCCAGTG gave a switch fluorescence ratio of 3.45.

In the case of ATCCCTATTG, the switch fluorescence ratio was 0.999.

With TTTCAACCTA the switch fluorescence ratio was 1.05.

CGACTGGTAG showed a switch fluorescence ratio of 0.96.

With GAGAGTTCCG the switch fluorescence ratio was 0.939.

With AATTGTAAAC the switch fluorescence ratio was 1.01.

For TTAGCACGTT, the switch fluorescence ratio was 1.01.

For AACATATGTA, the switch fluorescence ratio was 0.941.

Work on TTAAATTCAC yielded a switch fluorescence ratio of 1.07.

AACTGTGGGC showed a switch fluorescence ratio of 0.963.

ATCTGAATAA was tested, and the switch fluorescence ratio was 0.952.

CTCGAAAATA gave a switch fluorescence ratio of 1.05.

Sequence TGCTGGCCGT has a switch fluorescence ratio of 1.01.

Sequence GCAACTGAGG has a switch fluorescence ratio of 1.03.

Sequence CGCCCTCGCG has a switch fluorescence ratio of 1.02.

For CTGGACGAAT, the switch fluorescence ratio was 1.03.

CGCAATGTCG showed a switch fluorescence ratio of 1.04.

Work on CTGCAAGAAG yielded a switch fluorescence ratio of 1.01.

For AAGTCTGC, the switch fluorescence ratio was 1.01.

Work on GTGAGAAGGA yielded a switch fluorescence ratio of 1.02.

In the case of TGCAAGAACG, the switch fluorescence ratio was 0.995.

For GATGTCGT, the switch fluorescence ratio was 1.

For CAAAGAATAC, the switch fluorescence ratio was 1.24.

Work on CATATAATTA yielded a switch fluorescence ratio of 1.01.

TGTTTCATGT was tested, and the switch fluorescence ratio was 1.01.

CACCACAGAT gave a switch fluorescence ratio of 1.05.

For AGAGTCGGTA, the switch fluorescence ratio was 1.01.

For CTGCATGGA, the switch fluorescence ratio was 1.2.

In the case of TTGTCCAATG, the switch fluorescence ratio was 1.05.

TCGTTTCACC showed a switch fluorescence ratio of 0.951.

CGGATGCTAT was tested, and the switch fluorescence ratio was 0.993.

In the case of ACTCGACAGC, the switch fluorescence ratio was 1.24.

CGATTGAAGG gave a switch fluorescence ratio of 1.03.

For GCTATAATTT, the switch fluorescence ratio was 1.01.

CGAAACTTGC gave a switch fluorescence ratio of 1.11.

For TTGGAAACAC, the switch fluorescence ratio was 1.09.

Sequence GGGAGCCGAC has a switch fluorescence ratio of 1.03.

With AGTATGTGTA the switch fluorescence ratio was 0.997.

With GTGCTTAGAC the switch fluorescence ratio was 1.05.

Work on GGTAATCGAT yielded a switch fluorescence ratio of 0.983.

GTTGTACTAG gave a switch fluorescence ratio of 0.964.

AGACCGTTAG gave a switch fluorescence ratio of 0.998.

CAAATTCTTA was tested, and the switch fluorescence ratio was 1.02.

With AGTTCCTGCG the switch fluorescence ratio was 1.52.

For GTTCGGGCTA, the switch fluorescence ratio was 1.04.

For TGTATATTAG, the switch fluorescence ratio was 0.967.

ACAACAAGGC was tested, and the switch fluorescence ratio was 1.08.

TGGCAGCCTT gave a switch fluorescence ratio of 0.999.

With GATCGTCCGC the switch fluorescence ratio was 1.85.

In the case of ACTGATTATT, the switch fluorescence ratio was 1.02.

For AAATCTACC, the switch fluorescence ratio was 1.16.

For TTGGAGCGCT, the switch fluorescence ratio was 0.99.

With GAAGACCGCG the switch fluorescence ratio was 0.998.

ACAGCAAACA showed a switch fluorescence ratio of 1.17.

For GCAGTGTAAC, the switch fluorescence ratio was 1.02.

TCCAAAAAGC gave a switch fluorescence ratio of 1.02.

For GGTCGCAGAA, the switch fluorescence ratio was 1.06.

With GCCCGAGGGG the switch fluorescence ratio was 0.991.

With TTCAGTTACT the switch fluorescence ratio was 1.03.

With AGGGAACATC the switch fluorescence ratio was 1.03.

AAGCTAGATA gave a switch fluorescence ratio of 1.03.

For ACAGTACTTA, the switch fluorescence ratio was 1.31.

Work on GTGGCTGGAA yielded a switch fluorescence ratio of 0.996.

Work on CCTCTTCCTG yielded a switch fluorescence ratio of 1.11.

GTAAAAAATC gave a switch fluorescence ratio of 0.958.

With AAAGATAGGA the switch fluorescence ratio was 0.971.

Work on CAAGCTAGAC yielded a switch fluorescence ratio of 3.64.

TGGCCAAAA showed a switch fluorescence ratio of 0.982.

GAATAAAACT gave a switch fluorescence ratio of 1.04.

ATTGTCATCC was tested, and the switch fluorescence ratio was 0.989.

In the case of TTTCAAACGA, the switch fluorescence ratio was 1.07.

CGTGAGTTTT was tested, and the switch fluorescence ratio was 1.03.

Sequence AAAGCATGGT has a switch fluorescence ratio of 1.01.

ACGCTTCCAG showed a switch fluorescence ratio of 1.03.

Sequence GCTATCTTTG has a switch fluorescence ratio of 1.02.

GCTGGACGGG gave a switch fluorescence ratio of 0.996.

For GCCTGCGTTG, the switch fluorescence ratio was 1.

For CGTTGTTATA, the switch fluorescence ratio was 1.04.

GTGGCCTGCT gave a switch fluorescence ratio of 0.995.

AGAACTGGGT gave a switch fluorescence ratio of 0.992.

CATGAGGGGC showed a switch fluorescence ratio of 0.967.

TAATGTGGG gave a switch fluorescence ratio of 1.

For GCAAGCTGGT, the switch fluorescence ratio was 0.942.

In the case of TCCTCTTTTT, the switch fluorescence ratio was 1.

AGCGTATTGC showed a switch fluorescence ratio of 0.983.

Work on CTACCACATA yielded a switch fluorescence ratio of 1.12.

Work on AGTACGGCCT yielded a switch fluorescence ratio of 1.03.

Work on TTCATTAGCC yielded a switch fluorescence ratio of 1.02.

For TCTCAGCACA, the switch fluorescence ratio was 1.41.

With CTTAGTCCCG the switch fluorescence ratio was 0.996.

With GGGTTGCTGC the switch fluorescence ratio was 0.973.

Sequence CAAAACAGAA has a switch fluorescence ratio of 0.991.

TGGCTCCCC showed a switch fluorescence ratio of 1.23.

With CAGATATACG the switch fluorescence ratio was 1.02.

Sequence CCTCTGTAGT has a switch fluorescence ratio of 3.9.

In the case of AACTTAGTG, the switch fluorescence ratio was 1.

In the case of GTACATTCGG, the switch fluorescence ratio was 0.998.

Work on GGGGAGTGGT yielded a switch fluorescence ratio of 1.03.

CACCTACTT showed a switch fluorescence ratio of 1.35.

In the case of CGTTAGTTAG, the switch fluorescence ratio was 1.

With GGAGCTTGAT the switch fluorescence ratio was 1.03.

CTAAAGTGGT showed a switch fluorescence ratio of 0.968.

TCGCTCGGGG showed a switch fluorescence ratio of 1.03.

In the case of GAGACATAGA, the switch fluorescence ratio was 0.984.

With TATGCGTTG the switch fluorescence ratio was 0.971.

TCCAGGTCAT gave a switch fluorescence ratio of 1.07.

For ACGGCGGAGT, the switch fluorescence ratio was 0.98.

With GTCAACATTT the switch fluorescence ratio was 0.964.

In the case of GGCTCAAATT, the switch fluorescence ratio was 0.957.

With GGGAGACACT the switch fluorescence ratio was 1.01.

In the case of TAATATACCT, the switch fluorescence ratio was 1.34.

AATTACGG showed a switch fluorescence ratio of 1.07.

Sequence ACCGCGTGTT has a switch fluorescence ratio of 1.06.

Sequence CTAAACAATT has a switch fluorescence ratio of 0.991.

CCAATAAACG gave a switch fluorescence ratio of 1.05.
